Measurements from the supplement of paper PMC10320760.
Single values of this set are uncertain.

B1: Ydj1; a variant is named by its letters at X, in order (parent)
chain: MVKETKFYDILGVPVTATDVEIKKAYRKCALKYHPDKNPSEEAAEKFKEASAAYEILSDPEKRDIYDQFGEDGLSGAGGAGGFPGGGFGFGDDIFSQFFGAGGAQRPRGPQRGKDIKHEISASLEELYKGRTAKLALNKQILCKECEGRGGKKGAVKKCTSCNGQGIKFVTRQMGPMIQRFQTECDVCHGTGDIIDPKDRCKSCNGKKVENERKILEVHVEPGMKDGQRIVFKGEADQAPDVIPGDVVFIVSERPHKSFKRDGDDLVYEAEIDLLTAIAGGEFALEHVSGDWLKVGIVPGEVIAPGMRKVIEGKGMPIPKYGGYGNLIIKFTIKFPENHFTSEENLKKLEEILPPRIVPAIPKKATVDECVLADFDPAKYNRTRASRGGANYDSDEEEQGGEGVQCXXX

Variants of: B1
Experiment: enrichment factor, frequency at 37 °C / frequency at 25 °C (thermotolerance selection) (ratio); higher = more growth at 37 °C, higher likelihood of farnesylation
Settings: with Saccharomyces cerevisiae ydj1Δ (yWS304); selective temperature 37 °C; reference temperature 25 °C

Row | Variant | enrichment factor
1 | FNM | 1.91
2 | FNT | 1.65
3 | FNK | 0.117
4 | FNW | 1.12
5 | FNV | 1.39
6 | FNS | 1.34
7 | FNQ | 1.17
8 | FNP | 1.3
9 | FNL | 1.3
10 | FNN | 1.56
11 | FNH | 1.22
12 | FNR | 0.109
13 | FNY | 0.691
14 | FNI | 1.05
15 | QNT | 1.73
16 | QNI | 1.44
17 | QNP | 0.111
18 | QNL | 0.617
19 | QNM | 1.88
20 | QNH | 1.87
21 | QNY | 0.667
22 | QNK | 0.252
23 | QNS | 1.95
24 | QNV | 2.03

Row | Variant | enrichment factor
25 | QNQ | 1.59
26 | QNR | 0.108
27 | QNN | 2.1
28 | QNW | 1.26
29 | LNI | 1.34
30 | LNR | 0.207
31 | LNY | 0.919
32 | LNT | 1.37
33 | LNM | 1.11
34 | LNW | 1.08
35 | LNK | 0.222
36 | LNL | 1.02
37 | LNP | 0.179
38 | LNN | 1.32
39 | LNS | 1.35
40 | LNQ | 1.48
41 | LNH | 1.86
42 | LNV | 1.61
43 | KPD | 2.29
44 | KPC | 0.76
45 | KPA | 1.42
46 | PPA | 1.69
47 | PPC | 1.69
48 | HNK | 0.191

Row | Variant | enrichment factor
49 | HNT | 1.65
50 | HNV | 1.92
51 | HNM | 1.38
52 | HNI | 0.851
53 | HNN | 1.72
54 | HNY | 0.503
55 | HNH | 1.62
56 | HNQ | 1.34
57 | HNW | 0.389
58 | HNR | 0.204
59 | HNP | 0.332
60 | HNS | 1.74
61 | HNL | 0.504
62 | VNK | 0.154
63 | VNI | 1.78
64 | VNY | 2.15
65 | VNV | 1.99
66 | VNP | 0.102
67 | VNQ | 1.73
68 | VNH | 2.05
69 | VNN | 1.2
70 | VNR | 0.196
71 | VNL | 1.83
72 | VNG | 1.24

Row | Variant | enrichment factor
73 | VNM | 1.79
74 | VNS | 1.2
75 | VNT | 1.44
76 | VNW | 1.46
77 | WPA | 0.837
78 | WPC | 0.113
79 | DPD | 0.154
80 | DPC | 1.52
81 | DPA | 0.895
82 | CPA | 1.83
83 | CPC | 0.352
84 | DNL | 0.145
85 | DNT | 0.146
86 | DNP | 0.165
87 | DNK | 0.182
88 | DNY | 0.186
89 | DNV | 0.226
90 | DNW | 0.299
91 | DNQ | 1.67
92 | DNI | 0.118
93 | DNH | 0.188
94 | DNM | 1.37
95 | DNN | 0.189
96 | DNR | 0.0982

Row | Variant | enrichment factor
97 | DNS | 0.269
98 | TPC | 0.714
99 | TPA | 2.56
100 | RPC | 0.275
101 | RPA | 1.62
102 | RNW | 0.943
103 | RNT | 1.37
104 | RNY | 1.08
105 | RNR | 0.13
106 | RNN | 1.35
107 | RNK | 0.0802
108 | RNV | 1.56
109 | RNI | 1.15
110 | RNM | 1.25
111 | RNH | 1.46
112 | RNL | 0.573
113 | RNP | 0.144
114 | RNQ | 1.86
115 | RNS | 1.42
116 | APC | 0.888
117 | APA | 2.08
118 | APD | 2.67
119 | GPD | 0.175
120 | GPA | 1.51

Row | Variant | enrichment factor
121 | GPC | 0.599
122 | SPC | 0.72
123 | SPA | 1.84
124 | NPD | 1.15
125 | NPC | 1.05
126 | NPA | 1.86
127 | EPD | 0.297
128 | EPC | 1.66
129 | EPA | 1.24
130 | SNS | 1.4
131 | SNV | 1.4
132 | SNK | 0.221
133 | SNI | 0.769
134 | SNY | 0.973
135 | SNM | 1.44
136 | SNN | 1.85
137 | SNR | 0.16
138 | SNW | 0.362
139 | SNQ | 1.41
140 | SNL | 0.476
141 | SNP | 0.172
142 | SNH | 1.99
143 | SNT | 1.48
144 | LPC | 0.22

Row | Variant | enrichment factor
145 | LPA | 2.02
146 | LPD | 1.3
147 | NNK | 0.242
148 | NNL | 0.359
149 | NNH | 1.81
150 | NNT | 1.39
151 | NNM | 1.47
152 | NNR | 0.0781
153 | NNN | 0.919
154 | NNS | 1.67
155 | NNW | 0.413
156 | NNI | 0.496
157 | NNQ | 1.6
158 | NNP | 0.192
159 | NNV | 1.43
160 | NNY | 0.415
161 | FPA | 2.06
162 | FPD | 0.75
163 | FPC | 0.148
164 | INH | 1.52
165 | INV | 3.24
166 | INM | 1.5
167 | INP | 0.182
168 | INK | 0.13

Row | Variant | enrichment factor
169 | INL | 1.48
170 | INR | 0.0754
171 | INT | 1.4
172 | INS | 1.76
173 | INI | 1.35
174 | INN | 0.956
175 | INW | 0.68
176 | INY | 1.24
177 | INQ | 1.29
178 | MPA | 1.82
179 | MPD | 0.983
180 | MPC | 0.47
181 | PNR | 0.188
182 | PNQ | 1.49
183 | PNY | 1.06
184 | PNN | 1.77
185 | PNV | 1.72
186 | PNM | 1.54
187 | PNS | 1.64
188 | PNP | 0.155
189 | PNK | 0.133
190 | PNI | 1.08
191 | PNW | 0.4
192 | PNL | 0.62

Row | Variant | enrichment factor
193 | PNH | 1.78
194 | PNT | 1.4
195 | TNI | 1.43
196 | TNQ | 1.68
197 | TNP | 0.203
198 | TNR | 0.196
199 | TNT | 2.19
200 | TNV | 1.58
201 | TNY | 1.61
202 | TNH | 1.58
203 | TNW | 0.883
204 | TNM | 1.84
205 | TNL | 0.966
206 | TNN | 1.51
207 | TNS | 1.62
208 | TNK | 0.119
209 | QPC | 2.29
210 | QPA | 1.76
211 | MNM | 1.17
212 | MNV | 1.57
213 | MNR | 0.117
214 | MNW | 0.559
215 | MNK | 0.185
216 | MNS | 1.23

Row | Variant | enrichment factor
217 | MNN | 1.19
218 | MNQ | 1.57
219 | MNY | 0.462
220 | MNH | 1.53
221 | MNP | 0.205
222 | MNI | 0.59
223 | MNT | 1.19
224 | MNL | 0.608
225 | WNP | 1.29
226 | WNM | 0.851
227 | WNG | 1.16
228 | WNN | 1.77
229 | WNV | 1.25
230 | WNQ | 1.12
231 | WNR | 0.852
232 | WNI | 2.09
233 | WNL | 1.25
234 | WNK | 0.399
235 | WNS | 1.56
236 | WNW | 1.9
237 | WNT | 1.5
238 | WNY | 1.08
239 | WNH | 1.97
240 | ENP | 0.138

Row | Variant | enrichment factor
241 | ENR | 0.224
242 | ENK | 0.201
243 | ENH | 1.07
244 | ENQ | 1.34
245 | ENV | 1.21
246 | ENM | 1.79
247 | ENW | 0.394
248 | ENY | 0.942
249 | ENL | 0.39
250 | ENI | 0.819
251 | ENN | 0.725
252 | ENT | 0.883
253 | ENS | 1.23
254 | GNP | 0.139
255 | GNK | 0.11
256 | GNI | 0.183
257 | GNW | 0.225
258 | GNR | 0.0781
259 | GNS | 1.81
260 | GNY | 0.146
261 | GNN | 0.217
262 | GNL | 0.146
263 | GNQ | 1.18
264 | GNH | 0.395

Row | Variant | enrichment factor
265 | GNM | 2.05
266 | GNV | 0.56
267 | GNT | 0.36
268 | KNW | 0.517
269 | KNK | 0.355
270 | KNV | 1.61
271 | KNR | 0.182
272 | KNN | 1.75
273 | KNL | 0.331
274 | KNP | 0.164
275 | KNS | 1.6
276 | KNI | 0.728
277 | KNT | 1.43
278 | KNY | 0.582
279 | KNH | 1.59
280 | KNM | 1.36
281 | KNQ | 2.05
282 | ANQ | 1.61
283 | ANK | 0.243
284 | ANY | 1.86
285 | ANW | 1.42
286 | ANL | 1.45
287 | ANV | 1.78
288 | ANI | 1.38

Row | Variant | enrichment factor
289 | ANH | 1.63
290 | ANR | 0.116
291 | ANS | 1.79
292 | ANP | 0.126
293 | ANN | 1.18
294 | ANT | 1.83
295 | ANM | 1.26
296 | HPC | 1.95
297 | HPA | 2.38
298 | HPD | 1.12
299 | YPA | 4.06
300 | YPC | 1.74
301 | IPD | 1.66
302 | IPA | 1.84
303 | IPC | 1.05
304 | CNS | 1.55
305 | CNV | 0.386
306 | CNI | 0.158
307 | CNW | 0.288
308 | CNM | 0.869
309 | CNH | 1.47
310 | CNR | 0.233
311 | CNK | 0.114
312 | CNY | 0.776

Row | Variant | enrichment factor
313 | CNN | 1.22
314 | CNQ | 1.05
315 | CNP | 0.576
316 | CNT | 1.71
317 | CNL | 0.182
318 | YNG | 1.45
319 | YNN | 2.11
320 | YNP | 0.29
321 | YNK | 0.108
322 | YNH | 1.87
323 | YNR | 0.103
324 | YNT | 1.55
325 | YNS | 2.25
326 | YNY | 0.448
327 | YNQ | 1.95
328 | YNW | 0.774
329 | YNV | 1.75
330 | YNL | 0.955
331 | YNI | 0.731
332 | YNM | 2.03
333 | VPA | 3.01
334 | VPC | 1.7
